Paper PMC4336329 (PLoS ONE, 2015)
About 14,000 (4.5%) of roughly 310,000 compounds showed an effect of 50% or more. Effects have a minus sign here. This is one part of the list.

Biological target: human ether-à-go-go-related gene (hERG) potassium channel (human, UniProt Q12809)
Test: primary screen, population patch clamp on CHO cells stably expressing hERG
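Also: peak tail current of the secondary pulse compared with the same well before compound.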

human ether-à-go-go-related gene (hERG) potassium channel, sequence (Q12809 whole entry, looked up): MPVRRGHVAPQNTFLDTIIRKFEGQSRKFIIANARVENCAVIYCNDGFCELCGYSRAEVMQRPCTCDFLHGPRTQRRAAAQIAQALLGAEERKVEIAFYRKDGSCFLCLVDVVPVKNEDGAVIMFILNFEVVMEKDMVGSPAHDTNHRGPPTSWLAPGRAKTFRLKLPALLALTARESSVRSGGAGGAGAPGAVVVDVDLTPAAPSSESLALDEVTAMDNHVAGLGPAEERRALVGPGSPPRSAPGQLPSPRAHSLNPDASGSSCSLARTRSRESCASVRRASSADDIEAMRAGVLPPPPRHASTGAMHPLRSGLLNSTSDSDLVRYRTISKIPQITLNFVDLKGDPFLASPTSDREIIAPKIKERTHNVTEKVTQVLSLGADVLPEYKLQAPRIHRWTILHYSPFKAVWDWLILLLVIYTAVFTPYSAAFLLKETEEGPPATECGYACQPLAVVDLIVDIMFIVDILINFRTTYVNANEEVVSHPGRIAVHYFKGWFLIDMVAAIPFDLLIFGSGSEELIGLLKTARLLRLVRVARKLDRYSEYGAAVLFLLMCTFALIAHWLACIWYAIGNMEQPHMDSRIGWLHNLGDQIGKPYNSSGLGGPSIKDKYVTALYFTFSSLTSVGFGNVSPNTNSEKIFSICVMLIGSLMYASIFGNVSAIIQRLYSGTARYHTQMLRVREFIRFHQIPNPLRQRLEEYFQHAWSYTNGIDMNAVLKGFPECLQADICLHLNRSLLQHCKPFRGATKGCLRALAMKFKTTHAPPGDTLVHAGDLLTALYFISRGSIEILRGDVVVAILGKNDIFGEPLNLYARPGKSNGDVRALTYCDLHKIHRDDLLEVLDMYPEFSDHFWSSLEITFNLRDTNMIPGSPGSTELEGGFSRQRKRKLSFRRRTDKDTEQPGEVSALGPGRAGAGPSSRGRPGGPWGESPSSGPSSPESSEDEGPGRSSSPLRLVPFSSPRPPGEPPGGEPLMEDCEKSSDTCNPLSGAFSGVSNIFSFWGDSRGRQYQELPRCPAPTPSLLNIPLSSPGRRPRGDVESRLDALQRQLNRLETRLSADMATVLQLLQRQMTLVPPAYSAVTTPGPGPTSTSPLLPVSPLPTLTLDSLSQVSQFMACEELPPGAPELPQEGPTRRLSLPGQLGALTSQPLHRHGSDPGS

In order of rising “hERG current change (%, negative = inhibition) at 10uM” value:
1. CN(C)CCNc1ncnc2oc(-c3ccccc3)c(-c3ccccc3)c12  -60.7%
2. O=C(CSc1nnnn1C1CCCC1)Nc1cccc(NC(=O)c2ccco2)c1  -55.9%
3. Cc1ccn2c(=O)nc(SCC(=O)N3CCC(Cc4ccccc4)CC3)nc2c1  -55.6%
4. O=C(COc1ccc(S(=O)(=O)NC2CCCCC2)cc1)NC1CCCCC1  -54.1%
5. Cc1ccc(C(=O)N/N=C\c2ccc(-c3ccc(Cl)c(Cl)c3)o2)cn1  -44.9%
6. C=CCNC(=S)N1CCC(C(=O)c2ccc(C)cc2)CC1  -41.2%
7. CN1CCC(=NNC(=O)c2ccc(N(Cc3ccc(Cl)cc3)S(C)(=O)=O)cc2)CC1  -38%
8. CCC1CCCCN1C(=O)CSc1nnc(CNC(=O)COc2ccc(Cl)cc2)o1 (stereo not drawn)  -32.5%
9. CCCCN(Cc1ccccc1)C(=O)C1CCC(=O)N(CCc2ccccn2)C1 (stereo not drawn)  -31.4%
10. COC(CNC(=O)c1ccc2c(c1)nc(C)n2-c1cc(C)cc(C)c1)OC  -24%
11. CC1CCC(NC(=O)c2nc(Cn3ccc([N+](=O)[O-])n3)no2)CC1 (stereo not drawn)  -23.7%
12. COCCNC(=O)C(c1ccc(C)o1)N(C(=O)c1snc(C(N)=O)c1N)c1cccc(C)c1 (stereo not drawn)  -23.4%
13. C[C@@H](C(=O)NCc1ccccc1)[C@H]1C[C@]1(C)[C@H](NC(=O)OCc1ccccc1)c1ccccc1  -21.3%
14. Cc1ccc2c(CN3C(=O)NC(C)(c4ccc5c(c4)OCO5)C3=O)cc(=O)oc2c1 (stereo not drawn)  -17.7%
15. CCN(C#N)c1nc(N(C)C)nc(N(C)C)n1  -15.7%
16. O=C(c1cc2cc(Cl)cc(Cl)c2oc1=O)N1CCOCC1  -14.5%
17. CC(C)=CCC/C(C)=C/C=N/NC(=O)c1cccc([N+](=O)[O-])c1  -14.2%
18. O=C(Cn1cnc2c(cnn2-c2ccc(F)cc2)c1=O)NCc1ccco1  -12.6%
19. COc1cccc(N2C(=O)CC(=O)NC2=O)c1  -10.4%
20. O=C(NCC1COc2ccccc2O1)c1cccs1 (stereo not drawn)  -10.4%
21. COc1ccccc1-n1nnnc1SCc1cc2c(cc1Br)OCO2  -9.95%
22. Cc1ccc(CNC(=O)c2sc3nc4c(c(C(F)(F)F)c3c2N)CCC4)cc1  -8.52%
23. CCOC(=O)CC1Sc2ccccc2NC1=O (stereo not drawn)  -8.37%
24. COc1cc(C(=O)NS(=O)(=O)c2ccccc2C)ccc1Cc1cn(C)c2ccc(NC(=O)OC3CCCC3)cc12  -8.23%
25. Cc1cccc(NC(=O)CN(C)S(=O)(=O)c2ccc3c(c2)n(C)c(=O)c(=O)n3C)c1C  -7.72%
26. O=C(COc1ccc(F)cc1)Nc1ccccc1N1CCOCC1  -6.81%
27. CN(C)CCNC(=S)Nc1ccc(Br)cc1  -6.8%
28. COc1cc(/C=C/C(=O)OCC(=O)Nc2ccc(Cl)cn2)ccc1O  -6.4%
29. O=C(NCCSCc1ccccc1)c1ccccc1  -6.04%
30. CN(CC(=O)Nc1ccc(F)cc1)C(=O)COc1ccc([N+](=O)[O-])cc1Cl  -5.39%
31. Cc1ccc(NC(=O)[C@@H]2CCCN2S(=O)(=O)c2ccccc2F)cc1  -2.5%
32. COc1ccc(NC(=O)CSCC(=O)N2CCCc3ccccc32)cc1  -2.41%
33. CC(OC(=O)c1ccc2ncsc2c1)C(=O)NCc1ccccc1 (stereo not drawn)  -2.26%
34. COc1cccc(CN2CC(C(=O)N3CCCCCCC3)CCC2=O)c1 (stereo not drawn)  -2.24%
35. Cc1cc2c(ncn2C)c(NS(=O)(=O)c2ccc(Cl)cc2)c1C  -1.18%
36. Cc1cc(NC(=O)CSCC(=O)N(C)Cc2c(F)cccc2Cl)no1  -1.13%
37. COc1ccc(-n2nc([N+](=O)[O-])c(=NCc3cccnc3)n2O)cc1  -0.796%
38. Nc1nnc(CCOc2ccccc2Cl)s1  -0.794%
39. CCOC(=O)C1C(=O)NC(N2CCc3ccccc32)=NC1c1ccccc1 (stereo not drawn)  -0.74%
40. COc1ccccc1CNC(=O)c1csc(Cc2ccc(Cl)cc2)n1  -0.553%
41. CC1NC(=O)NC1CCCCCC(=O)NCCc1ccccc1 (stereo not drawn)  -0.365%
42. COC(=O)c1[nH]c2cccc(OC)c2c1NC(=O)CN1CCC(C(N)=O)(N2CCCCC2)CC1  0.138%
43. CCOc1cccc(OCCOCCN(C)C)c1.O=C(O)C(=O)O  0.719%
44. COC(=O)c1ccccc1NC(=O)c1cc(-c2ccc(O)cc2)on1  1.4%
45. CC1=C(n2nnc3ccccc32)C(c2ccccc2)C(C#N)=C(N)O1 (stereo not drawn)  1.42%
46. COc1ccc(N(C(=O)COc2cccc(C)c2)S(=O)(=O)c2ccc(C)cc2)cc1  2.07%
47. Cc1cc(NC(=O)Nc2ccc(Cl)cc2)no1  3.37%
48. Cc1c(OCC(=O)N2CCC(C(=O)O)CC2)ccc2c1oc(=O)c1ccccc12  3.65%
49. CCOC(=O)Cn1cc(/C=N/N2C(=O)C3C4C=CC(C4)C3C2=O)c2ccccc21 (stereo not drawn)  4.2%
50. CCN=C1SC(C(=O)Nc2cccc(Br)c2)CC(=O)N1CC (stereo not drawn)  4.36%
51. O=C(NCCN1CCC(Cc2ccccc2)CC1)C1CCCN(S(=O)(=O)c2cnc[nH]2)C1 (stereo not drawn)  4.42%
52. CCCCSc1nc2c(cnn2-c2ccc(C)c(C)c2)c(=O)[nH]1  4.75%
53. O=C(CN1CCSCC1)c1c[nH]c2ccccc12  4.87%
54. O=C(CCCNC(=O)c1ccc(Cl)cc1)Nc1ccc(Br)cc1  5.18%
55. CN(C)c1ccc(NC(=O)c2sc(SCC(=O)Nc3nccs3)nc2N)cc1  5.2%
56. Cc1cccc(OCc2nnc(SCC(=O)NCCc3ccccc3)o2)c1  5.59%
57. Cc1ccc(CNC(=O)c2c(-c3ccccc3Cl)noc2C)cc1  6.1%
58. Cc1ccc(-c2nnc(Nc3ccc(OCC(N)=O)cc3)c3ccccc23)cc1S(N)(=O)=O  6.5%
59. CCC1S/C(=N/N=C/c2ccco2)N(Cc2ccc(F)cc2)C1=O (stereo not drawn)  6.73%
60. CCOC(=O)C(NCc1ccccc1OC)(NC(=O)CC)C(F)(F)F (stereo not drawn)  7.33%
61. NC(=O)N/N=C/c1ccc([N+](=O)[O-])o1  7.41%
62. O=C(NNS(=O)(=O)c1ccc(F)cc1)c1ccc([N+](=O)[O-])cc1Cl  8.08%
63. Nc1nnc(CSCc2cccc(Br)c2)s1  9.08%
64. CCOC(=O)/C(=N\Nc1ccccc1Cl)N(C)C1CCCCC1  9.71%
65. COc1ccc(C2CC(=O)Nc3sc(=N)c4c(N)c(C#N)c(N)nc4c32)cc1OC (stereo not drawn)  9.8%
66. COc1ccc(CC(=O)NC(=S)Nc2ccc(S(=O)(=O)NC(C)(C)C)cc2)cc1  10.8%
67. COc1ccccc1N1CCN(C2CCCN(C(=O)CCc3cnccn3)C2)CC1 (stereo not drawn)  11%
68. CSc1ncccc1C(=O)NC(C)CCc1ccccc1 (stereo not drawn)  11.6%
69. CCOCCCNC(=O)c1c(N)n(-c2ccc3c(c2)OCO3)c2nc3ccccc3nc12  11.7%
70. O=C(C1=C(O)/C(=C/c2ccc(O)cc2)CCC1)C(F)(F)F  11.7%
71. Cc1cc(C)n(-c2nc3ccccc3c(=O)n2OCC#N)n1  11.7%
72. CCC(NC(=S)NCc1ccccc1)C(=O)O (stereo not drawn)  12.9%
73. CN(C(=O)CSc1nncn1-c1ccccc1)c1ccccc1  13%
74. O=C(NCc1ccc(C(F)(F)F)cc1)C1CC(c2cccc(F)c2)=NO1 (stereo not drawn)  13.3%
75. O=C(CSc1ncnc2c1cnn2-c1ccc(Cl)cc1)NCc1ccc2c(c1)OCO2  13.7%
76. COc1cccc(NC(=O)N2CCCC2C(=O)NC(C)C)c1 (stereo not drawn)  13.7%
77. Cc1nc(NC(=S)NC(=O)c2ccccc2)sc1C  14%
78. NC1=NC2(CCCC2)N=C(Nc2ccccc2)N1  16.5%
79. Cc1cc(C(=O)Nc2ccccc2C)on1  17.6%
80. CCn1c(SCC(=O)Nc2cc(C)on2)nc2c([nH]c3ccccc32)c1=O  17.9%
81. COc1ccc(-n2nc(C)cc2N)cc1  18.6%
82. Cc1ccccc1NC(=S)Nc1ccc2[nH]c(=O)[nH]c2c1  18.9%
83. O=C(NS(=O)(=O)c1ccccc1)c1cccc(Br)c1  18.9%
84. Cc1cc(C)c2[nH]c3nc(SCC(=O)O)nnc3c2c1  20.3%
85. CN(C)/C=C(/C(=O)c1ccccc1)n1cncn1  21.2%
86. COC(=O)Cn1c2ccccc2c2nc3ccccc3nc21  23.3%
87. Cc1ccc(S(=O)(=O)CC(O)COc2ccccc2C#N)cc1 (stereo not drawn)  23.6%
88. COC(=O)c1ccc(COC(=O)c2nn(C)c(=O)c3ccccc23)cc1  24.8%
89. C=CCn1cc(C(C)=O)c(=O)[nH]c1=O  28.4%
90. N#Cc1ccccc1CSc1nc2ccc(NC(=O)c3ccccc3C(=O)O)cc2s1  29.2%
